Reference: US20150366962A1 (priority 2014, published 2015)

Legend:
[1] = tested on: B/Florida/04/2006 (Yamagata lineage); set-up: species or system BALB/c mice; details: mouse, in vivo
[2] = tested on: A/Puerto Rico/8/1934(H1N1); set-up: species or system BALB/c mice; details: mouse, in vivo

Compound | morbidity (weight loss) compared to the no-adjuvant group [1] | morbidity as measured by weight loss [2] | morbidity (weight loss) compared to no-adjuvant control receiving 5 μg of rHA [2]
CCCCCCCCC=CCCCCCCCC(=O)OCC(COP(=O)(O)OCCNC(=O)c1ccc(Cn2c(=O)[nH]c3c(N)nc(OCCOC)nc32)cc1)OC(=O)CCCCCCCC=CCCCCCCCC (centres unmarked) [Compound 1V270] | significantly reduced | provided protective efficacy | 
Cn1c2ccccc2c2nc(SCC(=O)NC3CCCCC3)n(-c3ccccc3)c(=O)c21 [Compound 1Z105] | reduced morbidity by restricting weight loss on days 7 and 8 post infection | provided protective efficacy | significantly minimized
